# Hit rate of the full screen: of about 2,300 compounds, about 330 (14%) showed activity.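 The calls were made as follows: active = median modified Z-score above 1.96; inactive = 1.96 or below.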 Only a part is listed here, and it is no random draw.
# System: HepG2 Srxn1-GFP reporter cells (+30 nM CDDO-Me)
# Test: Srxn1-GFP intensity median modified Z-score relative to plate median; higher = stronger NRF2 / oxidative stress reporter activation, active = hit call of the paper
# Conditions: 10 µM; exposure time: 24h
# How it was run: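 In 96-well plates holding 20,000 HepG2 Srxn1-GFP BAC reporter cells per well, compound at 10 μM and an NRF2 activator at 30 nM were added together for 24 h, with DMSO at ≤0.1%, across three replicate plates. After fixation in formaldehyde and Hoechst staining, confocal images were analysed cell by cell for cytoplasmic GFP, and images containing under 100 cells were excluded. Values are replicate medians of the per-plate modified Z-score of GFP intensity, scaled by 1.4826 × median absolute deviation.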
row,Structure (SMILES),Srxn1-GFP intensity median modified Z-score
1,CC(=O)Nc1ccc(S(=O)(=O)c2ccc(NC(C)=O)cc2)cc1 [euspeclibcmpd761],inactive: -0.252
2,O=C(O)c1ccccc1Nc1cccc(C(F)(F)F)c1 [euspeclibcmpd370],active: 2.94
3,CC(O)(CC(=O)O)CC(=O)O [euspeclibcmpd934],inactive: -0.263
4,CCOC(=O)CC(=O)N1CCSC1COc1ccccc1OC (stereo unspecified) [euspeclibcmpd1082],inactive: 1.48
5,CC(=O)Oc1ccc(C(c2ccc(OC(C)=O)cc2)c2ccccn2)cc1 [euspeclibcmpd38],inactive: 0.0227
6,COc1ccc(C2Sc3ccccc3N(CCN(C)C)C(=O)C2OC(C)=O)cc1 (stereo unspecified) [euspeclibcmpd952],inactive: 0.263
7,CCC(C)(C)C(=O)O[C@H]1C[C@@H](C)C=C2C=C[C@H](C)[C@H](CC[C@@H]3C[C@@H](O)CC(=O)O3)[C@H]21 [euspeclibcmpd671],inactive: -0.935
8,CCCCS(=N)(=O)CCC(N)C(=O)O (stereo unspecified) [euspeclibcmpd1774],inactive: -0.55
9,O=S(=O)(c1cccc2cnccc12)N1CCCNCC1 [euspeclibcmpd1094],inactive: -1.28
10,NC1CCN(c2c(F)cc3c(=O)c(C(=O)O)cn(C4CC4)c3c2Cl)C1 (stereo unspecified) [euspeclibcmpd507],inactive: -0.176
11,CCC1(C)CC(=O)NC1=O (stereo unspecified) [euspeclibcmpd442],inactive: -0.0481
12,COc1ccc(C(C)=O)c(OC)c1 [euspeclibcmpd1377],inactive: -0.453
13,CCCNC(C)(C)COC(=O)c1ccccc1 [euspeclibcmpd548],inactive: -0.301
14,C=C[C@@]1(C)CC(=O)[C@@]2(O)[C@](C)(O1)[C@@H](O)[C@@H](O)C1C(C)(C)CC[C@H](O)[C@@]12C (stereo partly specified) [euspeclibcmpd1678],inactive: -0.485
15,COC(=O)/C=C/C(=O)OC [euspeclibcmpd923],active: 6.34
16,C[N+](C)(C)CCOC(N)=O [euspeclibcmpd43],inactive: -0.767
17,Cc1nc2sccn2c(=O)c1CCN1CCC(=C(c2ccc(F)cc2)c2ccc(F)cc2)CC1 [euspeclibcmpd532],active: 7.86
18,Nc1ccc(S(=O)(=O)N=c2ccc(Cl)n[nH]2)cc1 [euspeclibcmpd398],inactive: -0.684
19,CCC(C)C(NC)C(=O)O (stereo unspecified) [euspeclibcmpd1796],inactive: -0.00697
20,O=C(O)CCC(=O)c1ccc(-c2ccccc2)cc1 [euspeclibcmpd367],inactive: 0.00216
21,CN(C)CCc1c[nH]c2ccc(CS(=O)(=O)N3CCCC3)cc12 [euspeclibcmpd715],inactive: -0.352
22,CC(C)NNC(=O)c1ccncc1 [euspeclibcmpd1037],inactive: 0.415
23,CCCNCCCCCC[N+](C)(C)C [euspeclibcmpd616],inactive: 1.43
24,CCOC(N)=O [euspeclibcmpd570],inactive: -0.191
25,O=C1c2cccc(O)c2C(=O)c2c(O)cccc21 [euspeclibcmpd3],active: 19.4
26,NC(=O)c1cc[n+](C=C2CSC3C(NC(=O)Cc4cccs4)C(=O)N3C2C(=O)O)cc1 (stereo unspecified) [euspeclibcmpd1236],inactive: -0.488

row,Structure (SMILES),Srxn1-GFP intensity median modified Z-score
1,CC(=O)OC1CCC23C(=O)OC45CCC(c6coc(O)c6)C4(C)CCC2C5CCC3(O)C1 (stereo unspecified) [euspeclibcmpd1387],inactive: -1.25
2,OC(CCN1CCCCC1)(c1ccccc1)c1ccccc1 [euspeclibcmpd1117],inactive: -0.61
3,CC1(C)O[C@@H]2[C@@H](CO[C@@]3(COS(N)(=O)=O)OC(C)(C)O[C@@H]23)O1 [euspeclibcmpd870],inactive: 0.206
4,CCN(CC)CCNC(=O)c1cc(Br)c(N)cc1OC [euspeclibcmpd1122],inactive: 0
5,CCCCc1c(O)n(-c2ccccc2)n(-c2ccccc2)c1=O [euspeclibcmpd235],inactive: 0.115
6,CC=C(C1=CC(=O)C=CC1=O)c1ccccc1 [euspeclibcmpd1643],inactive: 1.51
7,CC(O)(P(=O)(O)O)P(=O)(O)O [euspeclibcmpd2239],inactive: 0.261
8,CCC1NC(=O)c2cc(S(N)(=O)=O)c(Cl)cc2N1 (stereo unspecified) [euspeclibcmpd628],inactive: -0.198
9,CCCCOc1ccc(CC(O)=NO)cc1 [euspeclibcmpd1071],inactive: 1.55
10,Cc1cnc(C(=O)NCCc2ccc(S(=O)(=O)NC(=O)NC3CCCCC3)cc2)cn1 [euspeclibcmpd782],inactive: 0.535
11,NC(=O)COC(=O)c1ccccc1Nc1cccc(C(F)(F)F)c1,inactive: 1.26
12,CN1CCC(=C2c3ccccc3CCc3sccc32)CC1 [euspeclibcmpd488],inactive: 0.0303
13,CCN(CC)CCCC(C)N=c1c2ccc(Cl)cc2[nH]c2ccc(OC)cc12 (stereo unspecified) [euspeclibcmpd261],active: 19.2
14,CN1CCOC(c2ccccc2)c2ccccc2C1 (stereo unspecified) [euspeclibcmpd394],inactive: 0.156
15,CCCCNc1ccc(C(=O)OCCN(C)C)cc1 [euspeclibcmpd287],inactive: -0.0522
16,COc1cc2occ(-c3ccccc3)c(=O)c2c(OC)c1C [euspeclibcmpd2367],active: 3.02
17,CC1(C)CC[C@]2(C(=O)O)CC[C@]3(C)C(=CCC4[C@@]5(C)CC[C@@H](O)C(C)(C)C5CC[C@]43C)C2C1 (stereo partly specified) [euspeclibcmpd1603],active: 4.09
18,COc1c2ccoc2cc2oc(=O)ccc12 [euspeclibcmpd1016],inactive: -0.217
19,COC(=O)C1=C(C)N=C(C)C(C(=O)OCCN2CCN(C(c3ccccc3)c3ccccc3)CC2)C1c1cccc([N+](=O)[O-])c1 (stereo unspecified) [euspeclibcmpd869],active: 5.13
20,CN(C)CCOC(c1ccc(Cl)cc1)c1ccccn1 (stereo unspecified) [euspeclibcmpd45],inactive: 0.615
21,Cc1ccccc1C(OCCN(C)C)c1ccccc1 (stereo unspecified) [euspeclibcmpd219],inactive: -0.229
22,CCOC(=O)C1=CC(OC(CC)CC)[C@H](NC(C)=O)[C@@H](N)C1 (stereo partly specified) [euspeclibcmpd2394],inactive: -0.535
23,CN1CCN(c2c(F)cc3c(=O)c(C(=O)O)cn4c3c2SCC4)CC1 [euspeclibcmpd1298],inactive: 0.0815
24,Cc1ccc(NC(=O)c2ccc(CN3CCN(C)CC3)cc2)cc1N=c1nc(-c2cccnc2)cc[nH]1 [euspeclibcmpd1311],active: 4.53
25,O=C(O)c1cccnc1C(=O)O [euspeclibcmpd2013],inactive: -0.445
26,CC(=O)Nc1ccc(C(=O)O)cc1 [euspeclibcmpd1101],inactive: 0.636

row,Structure (SMILES),Srxn1-GFP intensity median modified Z-score
1,CCOc1ccc(NC(C)=O)cc1 [euspeclibcmpd324],inactive: 0.0574
2,CN1CCC[C@@H]1CCO[C@](C)(c1ccccc1)c1ccc(Cl)cc1 [euspeclibcmpd66],inactive: 0.909
3,CCOC(=O)[N-]c1c[n+](N2CCOCC2)no1 [euspeclibcmpd1299],inactive: -0.135
4,CC[N+](CC)(CC)CCOc1cccc(OCC[N+](CC)(CC)CC)c1OCC[N+](CC)(CC)CC [euspeclibcmpd137],inactive: -0.0661
5,CC(C)(C)NCC(O)c1cc(O)cc(O)c1 (stereo unspecified) [euspeclibcmpd286],inactive: -0.0995
6,COc1cc(OC)c(-c2c(OC)cc(OC)cc2OC)c(OC)c1 [euspeclibcmpd1350],inactive: -0.437
7,O=C(O)C(O)[C@@](O)(Cc1ccc(O)cc1)C(=O)O (stereo partly specified) [euspeclibcmpd1612],inactive: -0.288
8,CC/C(=C(\c1ccccc1)c1ccc(OCCN(C)C)cc1)c1ccccc1 [euspeclibcmpd285],active: 43.4
9,CCc1oc2ccccc2c1C(=O)c1cc(Br)c(O)c(Br)c1 [euspeclibcmpd888],active: 2.7
10,COc1cc2oc3cc(OC)c(OC)c(CC=C(C)C)c3c(=O)c2c(OC)c1CC=C(C)C [euspeclibcmpd1951],active: 13.2
11,NCc1ccc(S(N)(=O)=O)cc1 [euspeclibcmpd173],inactive: -0.643
12,O=c1c(O)c(-c2ccc(O)c(O)c2)oc2cc(O)cc(O)c12 [euspeclibcmpd1479],inactive: -0.225
13,CC1CCCC(C)N1 (stereo unspecified) [euspeclibcmpd2195],inactive: -0.415
14,COCCc1ccc(OCC(O)CNC(C)C)cc1 (stereo unspecified) [euspeclibcmpd198],inactive: 0.381
15,CC(C)(C)NC[C@H](O)COc1ccccc1C1CCCC1 [euspeclibcmpd818],inactive: -0.464
16,COc1ccc(C(=O)c2ccccc2O)c(O)c1 [euspeclibcmpd100],inactive: 1.63
17,CC(C)Cc1ccc(C(C)C(=O)O)cc1 (stereo unspecified) [euspeclibcmpd2142],inactive: -0.249
18,COc1ccc(CN2CCN(C(c3ccc(F)cc3)c3ccc(F)cc3)CC2)c(OC)c1OC [euspeclibcmpd1081],inactive: -0.38
19,OCc1ccccn1 [euspeclibcmpd1277],inactive: 0.0555
20,CC1COc2c(N3CCN(C)CC3)c(F)cc3c(=O)c(C(=O)O)cn1c23 (stereo unspecified) [euspeclibcmpd2404],inactive: 0.0498
21,CN1CCN(c2cc3c(cc2F)c(=O)c(C(=O)O)cn3-c2ccc(F)cc2)CC1 [euspeclibcmpd484],inactive: -0.24
22,CC1(C)SC2C(NC(=O)Cc3ccccc3)C(=O)N2C1C(=O)O (stereo unspecified) [euspeclibcmpd2283],inactive: 0.484
23,CC(=O)SCC(Cc1ccccc1)C(=O)NCC(=O)OCc1ccccc1 (stereo unspecified) [euspeclibcmpd1089],inactive: -0.455
24,CC(=O)O[C@H]1CC[C@@]2(C)C(=CCC3C2CC[C@@]2(C)C3CC[C@@H]2C(C)CCCC(C)C)C1 (stereo partly specified) [euspeclibcmpd2217],inactive: -0.115

# Source: the supplement of paper PMC10498489
